SMILES strings stand for the structures. In all, about 48,000 compounds went through this assay and about 550 (1.1%) were called active. Not shown: some 4% with an inconclusive outcome. Cut-off read from the data, not from the text of the source: active = potency below about 15 µM; inconclusive = mostly about 16 µM to 33 µM; inactive = weaker than that. The list shows a part of the results.
Potency is the fitted concentration of half-maximal effect.

UniProt P04062, sequence (P04062 whole entry, looked up): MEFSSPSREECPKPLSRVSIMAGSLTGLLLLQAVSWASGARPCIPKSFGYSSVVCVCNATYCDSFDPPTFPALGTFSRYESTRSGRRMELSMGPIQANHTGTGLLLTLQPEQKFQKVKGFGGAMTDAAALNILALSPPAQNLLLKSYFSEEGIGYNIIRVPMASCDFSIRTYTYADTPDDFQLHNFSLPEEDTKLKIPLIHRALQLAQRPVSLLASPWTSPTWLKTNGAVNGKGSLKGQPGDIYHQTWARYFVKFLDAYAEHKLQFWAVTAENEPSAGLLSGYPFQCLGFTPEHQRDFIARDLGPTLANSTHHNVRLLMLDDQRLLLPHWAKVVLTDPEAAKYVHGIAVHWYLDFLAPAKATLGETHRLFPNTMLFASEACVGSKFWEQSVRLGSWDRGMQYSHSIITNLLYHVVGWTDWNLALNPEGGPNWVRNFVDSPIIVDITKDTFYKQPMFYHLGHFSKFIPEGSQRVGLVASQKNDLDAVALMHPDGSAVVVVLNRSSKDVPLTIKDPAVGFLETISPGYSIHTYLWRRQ

For this assay, the target named is Lysosomal acid glucosylceramidase (Homo sapiens) (UniProt P04062). Kind of assay: Glucocerebrosidase.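 Note: the screen sought inhibitors.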 To be noted: purified enzyme, resorufin glucoside fluorescence (screen aimed at inhibitors), 20 min; series mostly up to 77 µM. In a few lines:
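Wild-type enzyme at 0.2 nM final in 50mM citric acid/KH2PO4, 10mM sodium taurocholate, 0.01% tween-20, pH 5.9, with resorufin beta-D-glucopyranoside at 30 uM final. Compounds titrated, 20 min at RT, red fluorescence read; AC50 from titration.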
Turning to `CCN(CC(=O)Nc1ccc2c(c1)OCCO2)C(=O)C1CCCCC1`, the Potency was inactive: > 76.9 µM.
Consider `CCOc1ccc(-c2nc3n(c(=O)c2C#N)CCCS3)cc1`, for which the Potency was inactive: > 76.9 µM.
As for `CC1(C)Cc2cccc(OCC(=O)Nc3cccnc3)c2O1`, the figure is inactive: > 76.9 µM; as for `CC1CCc2cc(F)ccc2N1C(=O)CCC(=O)O` (stereo not given), inactive: > 76.9 µM.
As to `Cc1cccc(-n2nnnc2SC(C)C(=O)NCCC2=CCCCC2)c1` (stereo not given), the Potency is inactive: > 76.9 µM.
Regarding `CC1CCCCN1C(=O)Cn1c(=O)oc2ccccc21` (stereo not given), the Potency is inactive: > 76.9 µM.
The value for `CC(=O)N1CCc2cc(S(=O)(=O)N3CCc4ccccc4C3)ccc21` was inactive: > 76.9 µM; that for `CC1CCCCC1NC(=O)c1cncc(Br)c1` (stereo not given) was inactive: > 76.9 µM; that for `CN1C(=O)c2ccc(NC(=O)C3CCCCC3)cc2C1=O` was inactive: > 76.9 µM.
Take `Cc1ccc(NC(=O)CCn2c(=O)oc3ccccc32)c(C)c1`: the Potency was inactive: > 76.9 µM.
For `CCOC(=O)c1oc2ccccc2c1NC(=O)c1cccs1`, the Potency was inactive: > 76.9 µM.
The value for `c1cncc(-c2nn3c(-c4ccncc4)nnc3s2)c1` was inactive: > 76.9 µM; that for `CCOC(=O)C1(Cc2ccc(O)cc2)NC(c2ccco2)C2C(=O)N(c3ccccc3F)C(=O)C21` (stereo not given) was inactive: > 76.9 µM.
The value for `Nc1c(S(=O)(=O)c2cccs2)c2nc3ccccc3nc2n1Cc1ccc2c(c1)OCO2` was “inactive”.
As to `O=C1c2ccccc2C(=O)N1CNc1ccccc1`, the Potency is inactive: > 76.9 µM.
As for `Cc1ccc2cc(CN(CCCN(C)C)C(=O)NCc3ccccc3)c(=O)[nH]c2c1C`, the figure is inactive: > 76.9 µM; as for `Cc1cc(C(=O)NCC(c2ccco2)N(C)C)no1` (stereo not given), inactive: > 76.9 µM.
Consider `Cc1ccc(-c2nc3ncccn3c2Nc2ccc3c(c2)OCO3)o1`, for which the Potency is inactive: > 76.9 µM.
With `O=C(Cn1nc(C(F)(F)F)c2c1CCCC2)NCc1ccco1`, the Potency was inactive: > 76.9 µM.
As for `Cc1cc(NC(=O)CSC2=Nc3ccccc3C3=NC(Cc4ccccc4)C(=O)N23)n[nH]1` (stereo not given), the figure is inactive: > 76.9 µM; as for `CC1(C)Cc2nc3oc4c(N(CCO)Cc5ccccc5)ncnc4c3cc2CO1`, “inactive”.
Take `COC(=O)c1c(N)sc(C(=O)N2CCOCC2)c1C`: the Potency is inactive: > 76.9 µM.
The value for `CC12CCCCC1(O)[N+](=O)C1=C(CCCC1)N2[O-]` (stereo not given) was inactive: > 76.9 µM; that for `CC(C)(C)NS(=O)(=O)c1cccc2nsnc12` was inactive: > 76.9 µM; that for `CCOC(=O)C1CCN(CC(=O)c2c(C)[nH]c3ccccc23)CC1` was inactive: > 76.9 µM.
The value for `CN(C)c1cccc(NC(=O)CCc2ccccc2)c1` was inactive: > 76.9 µM.
As for `O=C(Cn1nnc2c(cnn2-c2ccc(F)cc2)c1=O)OC1CCCCC1`, the figure is inactive: > 76.9 µM.
As to `CC(=O)Nc1nc2ccc(Br)cc2s1`, the Potency is inactive: > 76.9 µM.
As for `Cn1c(=O)c2c(nc(CN3CCN(c4ccc(F)cc4)CC3)n2CCN2CCOCC2)n(C)c1=O`, the figure is inactive: > 76.9 µM.
The value for `CC(NS(C)(=O)=O)C(c1cccs1)N1CCN(c2ccc(F)cc2)CC1` (stereo not given) was inactive: > 76.9 µM; that for `O=CN(Cc1ccco1)C1(C(=O)NC2CCCCC2)CCCCC1` was inactive: > 76.9 µM.
Turning to `CCN(CC)C(=O)CSc1nc2ccccc2c(=O)[nH]1`, the Potency is inactive: > 76.9 µM.
The value for `CCOC(=O)Cc1csc(NC(=O)CSc2nnc(C(C)C)n2CC)n1` was inactive: > 76.9 µM; that for `Cc1ccsc1C1C2=C(CCCC2=O)Nc2ncnn21` (stereo not given) was inactive: > 76.9 µM.
As for `Cc1ccc(-n2c(N)c(-c3nc4ccccc4n3C)sc2=S)cc1`, the figure is inactive: > 76.9 µM; as for `COc1cc(NC(=O)Cn2c(-c3cncs3)nc3ccccc32)cc(OC)c1OC`, inactive: > 76.9 µM.
As to `CCCOc1ccc(CSc2ncn[nH]2)cc1`, the Potency was inactive: > 76.9 µM.
As to `O=S(=O)(NC1CC2CCC1C2)c1ccc2c(c1)OCCO2` (stereo not given), the Potency is inactive: > 76.9 µM.
For the compound `COc1ccc(CCC(=O)N2c3ccccc3CC2C)cc1` (stereo not given), the Potency was inactive: > 76.9 µM.
The value for `NC(Cc1ccc2nonc2c1)C(=O)O` (stereo not given) was inactive: > 76.9 µM; that for `O=C(Oc1ccc(-c2ccccc2)cc1)N1CCOCC1` was inactive: > 76.9 µM.
As for `CC(C)n1c(NCc2c[nH]c3ccccc23)nc2ccccc21`, the figure is inactive: > 76.9 µM; as for `Cc1onc(-c2ccccc2)c1C(=O)N1CCN(S(=O)(=O)c2ccc3c(c2)OCCO3)CC1`, inactive: > 76.9 µM.
The value for `CCN(CC)C(=O)COc1cccc2ccccc12` was inactive: > 76.9 µM; that for `O=C(CN(Cc1ccccc1Cl)C(=O)c1ccc(CN2CCOCC2)o1)NCc1ccccc1` was inactive: > 76.9 µM.
Consider `O=C(Nc1ccc2c(c1)OCCO2)c1c(F)c(F)c(F)c(F)c1F`, for which the Potency is inactive: > 76.9 µM.
The value for `O=C(NCc1ccco1)c1sc2cccc(F)c2c1Cl` was inactive: > 76.9 µM; that for `Cc1noc(N)c1C(=O)Nc1ccc(F)c(Cl)c1` was inactive: > 76.9 µM.
On to `O=c1oc2ccccc2cc1-c1nc2ccccc2o1`, for which the Potency is inactive: > 76.9 µM.
As for `CCn1c(-c2cccc(Br)c2)n[nH]c1=S`, the figure is inactive: > 76.9 µM; as for `COc1cc2nc(NC(=O)c3ccc(Cl)cc3)[nH]c(=O)c2cc1OC`, inactive: > 76.9 µM; as for `O=C(NCCC1=CCCCC1)C1CCN(S(=O)(=O)c2ccc(-n3cnnn3)cc2)CC1`, inactive: > 76.9 µM.
The value for `CCOC(=O)N1CCC(O)(c2cc(C)c(C)cc2C)CC1` was inactive: > 76.9 µM; that for `COC(=O)c1cn[nH]c1N` was inactive: > 76.9 µM.
As for `CC1(C)CC(=O)C2=C(C1)NCN(Cc1ccccc1)C2`, the figure is inactive: > 76.9 µM; as for `Cn1c(=O)c2c(nc(OCC3COC(C)(C)O3)n2Cc2ccccc2F)n(C)c1=O` (stereo not given), inactive: > 76.9 µM.
For the compound `O=C(Oc1ccc2cccc(OC(=O)N3CCOCC3)c2c1)N1CCOCC1`, the Potency is inactive: > 76.9 µM.
As to `Cc1ccc(C(C(=O)NC(C)(C)C)N(C(=O)c2csnn2)c2ccccc2F)o1` (stereo not given), the Potency is inactive: > 76.9 µM.
As for `CCOC(=O)C1C(=O)OC(C)(C)C1C(C)C(=O)c1ccc(OC)cc1` (stereo not given), the figure is inactive: > 76.9 µM; as for `CCN1CCCC1CN(Cc1cc2c(C)cc(C)cc2[nH]c1=O)C(=O)NC1CCCCC1` (stereo not given), inactive: > 76.9 µM.

Values taken from PubChem BioAssay AID360 (National Center for Advancing Translational Sciences (NCATS), 2006).
